Residue numbers refer to the chain shown, from its start. In names and notes the source's numbering stands. ± gives the standard deviation of the averaged measurements. Laboratory Escherichia coli strains with one amino-acid change in an essential protein, pooled on minimal glucose agar with carbenicillin or gentamicin at twice the control MIC (plus kanamycin and chloramphenicol for the plasmids), 48 h. Fold change of barcode share against drug-free plates; higher = less susceptible. Active = above 20 in both replicates (the paper's putatively resistant). '<' = one read or none on drug, '>' = one read or none on a drug-free plate. Shares are relative, so most strains fall below 1 when a few take over. Listed are strains with at least 15 reads on both drug-free plates, and hits; most hits rest on fewer reference reads. Replicate rank correlation about 0.5. Edits are read from barcodes.
B1: hisI W112D (protein)
chain: MLTEQQRRELDWEKTDGLMPVIVQHAVSGEVLMLGYMNPEALDKTLESGKVTFFSRTKQRLWTKGETSGNFLNVVSIAPDCDNDTLLVLANPIGPTCHKGTSSCFGDTAHQDLFLYQLEQLLAERKSADPETSYTAKLYASGTKRIAQKVGEEGVETALAATVHDRFELTNEASDLMYHLLVLLQDQGLDLTTVIENLRKRHQ
B2: hisI F114Q (protein)
chain: B1 chain with D112W, F114Q
B3: ilvA M70P (protein)
chain: MADSQPLSGAPEGAEYLRAVLRAPVYEAAQVTPLQKMEKLSSRLDNVILVKREDRQPVHSFKLRGAYAMPAGLTEEQKAHGVITASAGNHAQGVAFSSARLGVKALIVMPTATADIKVDAVRGFGGEVLLHGANFDEAKAKAIELSQQQGFTWVPPFDHPMVIAGQGTLALELLQQDAHLDRVFVPVGGGGLAAGVAVLIKQLMPQIKVIAVEAEDSACLKAALDAGHPVDLPRVGLFAEGVAVKRIGDETFRLCQEYLDDIITVDSDAICAAMKDLFEDVRAVAEPSGALALAGMKKYIALHNIRGERLAHILSGANVNFHGLRYVSERCELGEQREALLAVTIPEEKGSFLKFCQLLGGRSVTEFNYRFADAKNACIFVGVRLSRGLEERKEILQMLNDGGYSVVDLSDDEMAKLHVRYMVGGRPSHPLQERLYSFEFPESPGALLRFLNTLGTYWNISLFHYRSHGTDYGRVLAAFELGDHEPDFETRLNELGYDCHDETNNPAFRFFLAG
B4: infC I165A (protein)
chain: MKGGKRVQTARPNRINGEIRAQEVRLTGLEGEQLGIVSLREALEKAEEAGVDLVEISPNAEPPVCRIMDYGKFLYEKSKSSKEQKKKQKVIQVKEIKFRPGTDEGDYQVKLRSLIRFLEEGDKAKITLRFRGREMAHQQIGMEVLNRVKDDLQELAVVESFPTKAEGRQMIMVLAPKKKQ
B5: infC I165D (protein)
chain: B4 chain with A165D
B6: ispB F75A (protein)
chain: MNLEKINELTAQDMAGVNAAILEQLNSDVQLINQLGYYIVSGGGKRIRPMIAVLAARAVGYEGNAHVTIAALIEAIHTATLLHDDVVDESDMRRGKATANAAFGNAASVLVGDFIYTRAFQMMTSLGSLKVLEVMSEAVNVIAEGEVLQLMNVNDPDITEENYMRVIYSKTARLFEAAAQCSGILAGCTPEEEKGLQDYGRYLGTAFQLIDDLLDYNADGEQLGKNVGDDLNEGKPTLPLLHAMHHGTPEQAQMIRTAIEQGNGRHLLEPVLEAMNACGSLEWTRQRAEEEADKAIAALQVLPDTPWREALIGLAHIAVQRDR
B7: ispB I32D (protein)
chain: B6 chain with I32D, A75F
B8: ispB F75Q (protein)
chain: B6 chain with A75Q
B9: ispA I76D (protein)
chain: MDFPQQLEACVKQANQALSRFIAPLPFQNTPVVETMQYGALLGGKRLRPFLVYATGHMFGVSTNTLDAPAAAVECDHAYSLIHDDLPAMDDDDLRRGLPTCHVKFGEANAILAGDALQTLAFSILSDADMPEVSDRDRISMISELASASGIAGMCGGQALDLDAEGKHVPLDALERIHRHKTGALIRAAVRLGALSAGDKGRRALPVLDKYAESIGLAFQVQDDILDVVGDTATLGKRQGADQQLGKSTYPALLGLEQARKKARDLIDDARQSLKQLAEQSLDTSALEALADYIIQRNK
B10: ispA V190W (protein)
chain: B9 chain with D76I, V190W
B11: infB I440W (protein)
chain: MTDVTIKTLAAERQTSVERLVQQFADAGIRKSADDSVSAQEKQTLIDHLNQKNSGPDKLTLQRKTRSTLNIPGTGGKSKSVQIEVRKKRTFVKRDPQEAERLAAEEQAQREAEEQARREAEESAKREAQQKAEREAAEQAKREAAEQAKREAAEKDKVSNQQDDMTKNAQAEKARREQEAAELKRKAEEEARRKLEEEARRVAEEARRMAEENKWTDNAEPTEDSSDYHVTTSQHARQAEDESDREVEGGRGRGRNAKAARPKKGNKHAESKADREEARAAVRGGKGGKRKGSSLQQGFQKPAQAVNRDVVIGETITVGELANKMAVKGSQVIKAMMKLGAMATINQVIDQETAQLVAEEMGHKVILRRENELEEAVMSDRDTGAAAEPRAPVVTIMGHVDHGKTSLLDYIRSTKVASGEAGGITQHIGAYHVETENGMWTFLDTPGHAAFTSMRARGAQATDIVVLVVAADDGVMPQTIEAIQHAKAAQVPVVVAVNKIDKPEADPDRVKNELSQYGILPEEWGGESQFVHVSAKAGTGIDELLDAILLQAEVLELKAVRKGMASGAVIESFLDKGRGPVATVLVREGTLHKGDIVLCGFEYGRVRAMRNELGQEVLEAGPSIPVEILGLSGVPAAGDEVTVVRDEKKAREVALYRQGKFREVKLARQQKSKLENMFANMTEGEVHEVNIVLKADVQGSVEAISDSLLKLSTDEVKVKIIGSGVGGITETDATLAAASNAILVGFNVRADASARKVIEAESLDLRYYSVIYNLIDEVKAAMSGMLSPELKQQIIGLAEVRDVFKSPKFGAIAGCMVTEGVVKRHNPIRVLRDNVVIYEGELESLRRFKDDVNEVRNGMECGIGVKNYNDVRTGDVIEVFEIIEIQRTIA
B12: hisS V89A (protein)
chain: MAKNIQAIRGMNDYLPGETAIWQRIEGTLKNVLGSYGYSEIRLPIVEQTPLFKRAIGEVTDVVEKEMYTFEDRNGDSLTLRPEGTAGCARAGIEHGLLYNQEQRLWYIGPMFRHERPQKGRYRQFHQLGCEVFGLQGPDIDAELIMLTARWWRALGISEHVTLELNSIGSLEARANYRDALVAFLEQHKEKLDEDCKRRMYTNPLRVLDSKNPEVQALLNDAPALGDYLDEESREHFAGLCKLLESAGIAYTVNQRLVRGLDYYNRTVFEWVTNSLGSQGTVCAGGRYDGLVEQLGGRATPAVGFAMGLERLVLLVQAVNPEFKADPVVDIYLVASGADTQSAAMALAERLRDELPGVKLMTNHGGGNFKKQFARADKWGARVAVVLGESEVANGTAVVKDLRSGEQTAVAQDSVAAHLRTLLG
B13: hisS F133D (protein)
chain: B12 chain with A89V, F133D
B14: hisS V89D (protein)
chain: B12 chain with A89D

Target: Escherichia coli (laboratory strain)
Assay: barcode share on antibiotic plates over drug-free plates; higher = less susceptible
Conditions: antibiotic: gentamicin; 2× MIC (MIC 0.45 µg/mL)
Method: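 A pool of E. coli strains, each edited to carry one amino-acid change in an essential protein, was grown for 48 h on minimal glucose agar with or without antibiotic; strain barcodes were sequenced; mean of two replicates.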

Row | Protein | fold change of barcode share
1 | B1 | 0.0259 ± 0.027
2 | B2 | < 0.018
3 | B3 | < 0.013
4 | B4 | < 0.0187
5 | B5 | < 0.0177
6 | B6 | < 0.0193
7 | B7 | 145 [active]
8 | B8 | < 0.0208
9 | B9 | 40.2 [active]
10 | B10 | > 34.8 [active]
11 | B11 | < 0.0149
12 | B12 | < 0.02
13 | B13 | < 0.0201
14 | B14 | < 0.0203

Reference: the supplement of paper PMC11876631
